# Reference: PubChem BioAssay (NCATS)
# “And” between values parts separate entries of the source, which are not always exact repeats. Identical values can stand only once. This is one part of the list. These are further read-outs of the screen, such as a control signal, another cell line or another target. No call is given for them. Most of these compounds were active or inconclusive in the main read-out, so they are no random draw. The note in brackets gives the kind of curve behind each potency; many fits are weak.
# Assay: qHTS Assay for Lipid Storage Modulators (AID 1519)
# Conditions: Drosophila S3 cells, BODIPY lipid droplet/cell ratio, laser cytometry, cells loaded with oleic acid
# Procedure, shortened: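 Cells seeded at 5,000 per well were treated with compounds over a concentration series and loaded with oleic acid (400 uM, as added). Lipid droplet fluorescence (488 nm excitation, 500-530 nm channel) was read by laser-scanning cytometry and normalized to 20 uM Triacsin C.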
# [1] = measured here: cell count channel max response
# [2] = measured here: cell number channel AC50
# [3] = measured here: lipid (BODIPY) channel AC50
# [4] = measured here: lipid channel max response
# Tags tell the direction and shape of the fitted curve.
SMILES,max response [1],AC50 [2],AC50 [3],max response [4]
COc1ccccc1CNc1nc(-c2ccoc2)nc2ccccc12,11.1%,"0.447 µM [rising, full curve, poor fit]","0.447 µM [rising, full curve, poor fit]",14%
O=C(c1cnccn1)N1CCC2(CCCN(c3ccc(-c4ccccc4)cc3)C2)CC1,23.2%,"0.631 µM [rising, full curve, poor fit]","0.112 µM [rising, full curve]",38.5%
COc1cccc(-c2ccc3ncnc(N4CCNCC4)c3c2)c1,45.4%,"12.6 µM [rising, partial curve, poor fit]","11.2 µM [rising, partial curve, poor fit]",54%
CN(C)C(=O)c1ccc(-c2cncnc2Nc2ccccc2)cc1,20.5%,"0.501 µM [rising, full curve]","0.631 µM [rising, full curve]",24.6%
N#C[C@H](Cc1ccc(O)cc1)c1ccc(O)cc1,39%,"8.91 µM [rising, full curve, poor fit]","8.91 µM [rising, full curve, poor fit]",49.3%
CN(C)c1ncc2nc(-c3cccs3)c(=O)n(C3CC3)c2n1,12.9%,"1.26 µM [rising, full curve]","0.708 µM [rising, full curve, poor fit]",10.2%
CN(C)c1ncc2nc(-c3ccc(F)cc3)c(=O)n(CCc3ccccc3)c2n1,40.9%,"0.794 µM [rising, full curve]","0.562 µM [rising, full curve]",49.4%
Cc1cnc(CNc2ncncc2-c2ccc(N(C)C)cc2)cn1,47.4%,"1.58 µM [rising, full curve]","1.58 µM [rising, full curve]",57%
COc1ccc2c(=O)ccoc2c1,21.2%,"0.0355 µM [rising, full curve, poor fit]","10 µM [rising, partial curve, poor fit]",34.6%
COc1cccc(Nc2ncc3nc(CCc4ccccc4)c(=O)n(C4CC4)c3n2)c1,-2.94%,"0.282 µM [rising, full curve]","0.112 µM [rising, full curve]",-6.32%
O=C1C[C@H](c2ccccc2)Oc2cc(O)cc(O)c21,98.2%,"28.2 µM [rising, partial curve, poor fit]","31.6 µM [rising, partial curve, poor fit]",126%
N[C@H](C(=O)O)[C@H](OCc1ccccc1)C(=O)O,70.1%,"35.5 µM [rising, partial curve, poor fit]","35.5 µM [rising, partial curve, poor fit]",91.9%
COc1cccc(Cn2c(=O)c(C)nc3cnc(Oc4cccc(Cl)c4)nc32)c1,30.2%,"0.398 µM [rising, full curve, poor fit]","0.1 µM [rising, full curve]",40.9%
Cc1c[nH]c(=O)n(CCCN2CCN(c3ccccc3OCC(F)(F)F)CC2)c1=O,67.4%,"17.8 µM [rising, partial curve, poor fit]","28.2 µM [rising, partial curve, poor fit]",88.1%
c1cncc(-c2cc(NCc3cccs3)ncn2)c1,38.7%,"20 µM [rising, partial curve, poor fit]","12.6 µM [rising, partial curve, poor fit]",44.8%
Cn1cc(-c2nc3cncnc3n(CCN)c2=O)c2ccccc21,17.3%,"0.282 µM [rising, full curve, poor fit]","0.355 µM [rising, full curve]",26.8%
Cc1cnc(CNc2ncnc3ccc(-c4ccc5c(c4)OCO5)cc23)cn1,29.9%,"0.891 µM [rising, full curve, poor fit]","1 µM [rising, full curve, poor fit]",35.9%
Nc1ncnc2c1nc(Sc1ccc(Cl)cc1)n2[C@H]1O[C@@H]2COP(=O)(O)O[C@H]2[C@@H]1O,68.1%,"12.6 µM [falling, partial curve, poor fit]","12.6 µM [falling, partial curve, poor fit]",72.1%
c1cn(-c2ncnc3ccc(-c4ccoc4)cc23)cn1,7.62%,"1.12 µM [rising, full curve, poor fit]","1.12 µM [rising, full curve, poor fit]",10.6%
CCNc1ncc2nc(CCc3ccccc3)c(=O)n(Cc3cccc(OC)c3)c2n1,17.7%,"0.708 µM [rising, partial curve]","0.631 µM [rising, partial curve]",24.5%

SMILES,max response [1],AC50 [2],AC50 [3],max response [4]
COc1ccccc1-c1nc(NCc2cccs2)c2ccccc2n1,15%,"0.708 µM [rising, full curve]","0.447 µM [rising, full curve]",13.7%
COc1ccc2[nH]cc(CCNc3cc(-c4cccc(C#N)c4)ncn3)c2c1,12.9%,"0.0891 µM [rising, full curve]","0.0891 µM [rising, full curve]",17.7%
c1ccc2c(NCCN3CCOCC3)nc(-c3ccoc3)nc2c1,33%,"0.0891 µM [rising, full curve]","0.0708 µM [rising, full curve]",43.8%
COc1ccc(/C=C\C(=O)Nc2ccccc2C(=O)O)cc1OC,44.7%,"1.58 µM [rising, full curve, poor fit]","1.41 µM [rising, full curve, poor fit]",62.4%
CN1C(C)(C)CCCC1(C)C,40.8%,"39.8 µM [rising, single point]","39.8 µM [rising, single point]",41.7%
COc1ccc(-n2c(=O)c(-c3ccccc3)nc3cnc(N4CCOCC4)nc32)cc1,24.7%,"5.01 µM [rising, full curve, poor fit]","5.01 µM [rising, full curve, poor fit]",31.2%
COc1ccc(Oc2ncc3nc(-c4ccccc4)c(=O)n(CCC#N)c3n2)cc1,-0.229%,"1 µM [rising, partial curve, poor fit]","1.12 µM [rising, partial curve]",2.19%
CC(C)[C@H](CO)Nc1nc(Nc2cc(N)cc(Cl)c2)c2ncn(C(C)C)c2n1,70.3%,"20 µM [rising, partial curve]","20 µM [rising, full curve, poor fit]",83.2%
COc1ccc(-n2c(=O)c(CCc3ccccc3)nc3cncnc32)cc1,33.1%,"3.55 µM [rising, full curve]","3.16 µM [rising, full curve]",43.3%
CNc1nc(-c2cccc(NS(C)(=O)=O)c2)nc2ccccc12,34.1%,"1 µM [rising, full curve, poor fit]","0.794 µM [rising, full curve]",40.2%
CCNc1ncc2nc(-c3cc(F)cc(F)c3)c(=O)n(CCC#N)c2n1,46%,"8.91 µM [rising, partial curve, poor fit]","0.178 µM [rising, full curve, poor fit]",22.1%
CCCCN1CCC(CCC(=O)c2cc(Cl)c(N)cc2OC)CC1,51%,"15.8 µM [rising, partial curve]","15.8 µM [rising, partial curve, poor fit]",65.7%
CCCCCCCCCCCCCCC/C=C/[C@@H](O)[C@H](NC(=O)CCCCCCCCCCCCC)OC (tested in a mixture with another compound),-4.8%,"15.8 µM [falling, single point]","15.8 µM [falling, single point]",-2.81%
COc1cccc(Nc2ncc3nc(-c4ccc(F)cc4)c(=O)n(CCC#N)c3n2)c1,39.6%,"0.0501 µM [rising, full curve, poor fit]","0.0224 µM [rising, full curve]",-0.484%
COc1ccccc1CCn1c(=O)cnc2cncnc21,10.1%,"0.562 µM [rising, full curve]","0.631 µM [rising, full curve, poor fit]",10.8%
Cc1cc(=O)cc2oc3cc(N)c(-c4c(C)cc(O)cc4O)c(C)c3nc1-2,-35.1%,"70.8 µM [falling, partial curve, poor fit]","44.7 µM [falling, partial curve, poor fit]",-32.9%
O=C(c1cc(C(F)(F)F)cc(C(F)(F)F)c1)N1CCC2(CC1)CN(c1ccccn1)C2,4.02%,"3.98 µM [rising, partial curve, poor fit]","5.01 µM [rising, partial curve, poor fit]",-1.21%
COC(=O)C1=C(C)NC(C)=C([N+](=O)[O-])[C@@H]1c1ccccc1C(F)(F)F,75.8%,"4.47 µM [rising, full curve]","3.98 µM [rising, full curve]",92.7%
CCCNC(C)C(=O)Nc1ccccc1C (stereo unspecified),14.4% and 48.5%,"4.47 µM [falling, partial curve, poor fit]","39.8 µM [rising, single point] and 4.47 µM [falling, partial curve, poor fit]",32.1% and 49.8%
